{"source": "paper PMC9574860", "about": "“Chemical Toolkit for PARK7: Potent, Selective, and High-Throughput” (Journal of Medicinal Chemistry, 2022)", "note": "Hit rate of the full screen: of about 7,900 compounds, about 400 (5.1%) showed an effect of 50% or more. The list shows a part of the results.", "data": [{"molecular_target": "Parkinson's disease protein 7 (PARK7/DJ1) (human, UniProt Q99497)", "sequence (Q99497 whole entry, looked up, the tested form may be a part)": "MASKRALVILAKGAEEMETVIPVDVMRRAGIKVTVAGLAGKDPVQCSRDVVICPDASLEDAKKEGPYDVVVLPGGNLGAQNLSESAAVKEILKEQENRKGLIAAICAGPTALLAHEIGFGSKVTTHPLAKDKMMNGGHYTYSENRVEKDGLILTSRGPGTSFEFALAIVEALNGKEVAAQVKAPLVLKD", "assay": "primary screen, percent inhibition; read as competition with a fluorescent probe by fluorescence polarization; higher = more effect of the substance", "settings": "100 µM", "protocol": "The screen was conducted using the conditions as described above in 1536-well plates (Corning 3724) with a reaction volume of 8 μL per well. The compound library containing 7887 covalent fragments was purchased at Enamine Ltd. and received as 100 mM DMSO stocks in 384 well LDV Echo plates (Labcyte LP-0200). Stock solutions of 0.26 μM PARK7 and 80 nM JYQ-107 were prepared. Using a Labcyte Echo550 acoustic dispenser, 8 nL of the DMSO stock solution of the library compounds was transferred from the source plates into the empty 1536-well screening plates to obtain a 100 μM final compound concentration. Next, PARK7 (6 μL, final concentration 0.2 μM) was dispensed using a Biotek MultiflowFX liquid dispenser and incubated for 2 h, followed by dispensing the probe JYQ-107 (2 μL, final concentration 20 nM). After 2 h incubation, the FP signal was recorded on a BMG Labtech PHERAstar plate reader (λex/em 480/520 nm). The relative loss of FP signal compared with reference controls was used to calculate the remaining enzyme activity.", "units": {"Inhibition %": "%"}, "values": [{"smiles": "O=c1[nH]c(=O)n(CCC2OCCO2)cc1Cl", "Inhibition %": 5.36}, {"smiles": "O=S(=O)(C=Cc1ccccc1)Nc1cc(C(F)(F)F)n[nH]1", "Inhibition %": 5.76}, {"smiles": "OC1(CCC2CO2)CCC1", "note": "(centres unmarked)", "Inhibition %": 7.16}, {"smiles": "CN(CC1CC1)S(=O)(=O)C=Cc1ccccc1", "Inhibition %": 7.7}, {"smiles": "C=CC(=O)N1CCN(C(=O)NC2CCCCC2)CC1", "Inhibition %": 10.9}, {"smiles": "CCN(c1ccc(C(F)(F)F)c(C#N)n1)C1CCOC1", "note": "(centres unmarked)", "Inhibition %": 8.44}, {"smiles": "Cn1ncc2c(S)ncnc21", "Inhibition %": 6.07}, {"smiles": "CC1(C)OB(c2ccc(SC(F)F)cc2)OC1(C)C", "Inhibition %": 12.5}, {"smiles": "O=c1cnc2ccccc2n1CCS(=O)(=O)F", "Inhibition %": 13.8}, {"smiles": "COc1ccc(NCCS(=O)(=O)F)cc1.Cl", "Inhibition %": 44.4}, {"smiles": "C=CC(=O)N1CCC(CC(N)=O)CC1", "Inhibition %": 5.67}, {"smiles": "C=CC(=O)NCCc1nccs1", "Inhibition %": 8.81}, {"smiles": "CC1(C)OB(c2cccc(CN3CCCC3)c2)OC1(C)C.Cl", "Inhibition %": 6.39}, {"smiles": "N#Cc1ncn(CC(=O)NCC(F)(F)F)n1", "Inhibition %": 8.99}, {"smiles": "Cc1c(C#N)c(NC(=O)CCl)n(Cc2ccco2)c1C", "Inhibition %": 36.7}, {"smiles": "C=CC(=O)N1CCC(c2cnn(C)c2)CC1", "Inhibition %": 5.8}, {"smiles": "O=C(CCl)NC(=O)OCc1ccccc1", "Inhibition %": 33.1}, {"smiles": "O=C(N1CCCC1C1CCCCC1)n1ccnc1", "note": "(centres unmarked)", "Inhibition %": 5.92}, {"smiles": "O=C(CN1CCSC1=O)NC1CCc2ccccc21", "note": "(centres unmarked)", "Inhibition %": 5.18}, {"smiles": "O=C(Nc1ccc2c(c1)B(O)OCC2)C1CCCCO1", "note": "(centres unmarked)", "Inhibition %": 9.99}, {"smiles": "C=CC(=O)N1Cc2ccccc2C1", "Inhibition %": 7.43}, {"smiles": "Cc1ccc(C(=O)C=Cc2cc(C#N)n(C)c2C)o1", "Inhibition %": 7.22}, {"smiles": "C=CC(=O)N1CC(C)CC1c1ccccc1", "note": "(centres unmarked)", "Inhibition %": 4.59}, {"smiles": "C=CS(=O)(=O)c1ccc(F)cc1", "Inhibition %": 13}, {"smiles": "CCN(C1CC1)S(=O)(=O)C=Cc1ccccc1", "Inhibition %": 4.44}, {"smiles": "C=CC(=O)NC1(C(N)=O)CCCOC1", "note": "(centres unmarked)", "Inhibition %": 3.4}, {"smiles": "N#Cc1ccc(NC(=O)CCCCl)cc1", "Inhibition %": 2.77}, {"smiles": "N#Cc1ncc(Cl)cc1Cl", "Inhibition %": 8.09}, {"smiles": "Nc1nnc(SC2CCOC2=O)s1", "note": "(centres unmarked)", "Inhibition %": 3.23}, {"smiles": "CC(C)c1cccc(NC(=O)Cn2cnc(C#N)n2)c1", "Inhibition %": -0.97}, {"smiles": "O=C(CCl)NCCC1=CCCCC1", "Inhibition %": 31.7}, {"smiles": "COc1c(S(=O)(=O)n2cccn2)ccc(Cl)c1Cl", "Inhibition %": 0.301}, {"smiles": "NC(=O)C1OC12CCCCC2", "note": "(centres unmarked)", "Inhibition %": 3.87}, {"smiles": "CSc1ccc(C=C(C#N)C(=O)N2CCCC2)cc1", "Inhibition %": 15.3}, {"smiles": "CC1(CCl)NC(=O)c2ccccc2N1", "note": "(centres unmarked)", "Inhibition %": 4.81}, {"smiles": "N#Cc1nc(F)ccc1O", "Inhibition %": 55.2}, {"smiles": "Cc1c(C=C2Oc3cc(O)ccc3C2=O)cc(C#N)n1C", "Inhibition %": 1.38}, {"smiles": "C=CC(=O)NCc1ccc2c(c1)CCS2(=O)=O", "Inhibition %": 7.72}, {"smiles": "Cc1cc(NS(=O)(=O)c2ccc(S(=O)(=O)F)cc2)c[nH]c1=O", "Inhibition %": 92.6}, {"smiles": "O=S(=O)(C=Cc1ccc(Cl)cc1)NC1CCCC1", "Inhibition %": 5.87}, {"smiles": "N#Cc1ccc(NCC2CCSCC2)nn1", "Inhibition %": 9.68}, {"smiles": "Cc1cc(=O)oc2c(C)c(OCC3CO3)ccc12", "note": "(centres unmarked)", "Inhibition %": 8}, {"smiles": "CC(=O)N(C)Cc1ccc(C(=O)CCl)cc1", "Inhibition %": 79.8}, {"smiles": "Cl.ClCCCc1nc2ccccc2[nH]1", "Inhibition %": 0.892}, {"smiles": "C=CCOc1cncc(B2OC(C)(C)C(C)(C)O2)c1", "Inhibition %": 0.186}, {"smiles": "O=C(O)c1cccnc1S", "Inhibition %": 5.3}, {"smiles": "O=C(N1CCCC1Cc1ccccc1)n1ccnc1", "note": "(centres unmarked)", "Inhibition %": 2.39}, {"smiles": "CCc1ccc(C=CS(=O)(=O)N2CCCC2C(=O)O)cc1", "note": "(centres unmarked)", "Inhibition %": 0.98}, {"smiles": "N#Cc1ccc(NCC(=O)N2CCc3ccccc32)cn1", "Inhibition %": 1.56}, {"smiles": "C=CC(=O)NC(C)(C)c1nc(C)cs1", "Inhibition %": 8.42}, {"smiles": "N#Cc1c(NC(=O)CC2CCCCC2)nc2n1CCS2", "Inhibition %": 6.61}, {"smiles": "C=CC(=O)NCCc1nsc2ccccc12", "Inhibition %": 0.371}, {"smiles": "Cc1occc1-c1nnc(SC2CC(C)OC2=O)o1", "note": "(centres unmarked)", "Inhibition %": 3.03}, {"smiles": "N#Cc1cccc(OC(F)F)n1", "Inhibition %": 6.74}, {"smiles": "N#Cc1ccc(C2OCCO2)cc1", "Inhibition %": 3.68}, {"smiles": "NC(=O)C1CCN(C2CCOC2=O)CC1", "note": "(centres unmarked)", "Inhibition %": 7.51}, {"smiles": "CC(NC(=O)CCl)c1ccc(-c2ccccc2)cc1", "note": "(centres unmarked)", "Inhibition %": 3.9}, {"smiles": "O=S(=O)(F)c1ccc(S(=O)(=O)NC2CCCC(O)C2)cc1", "note": "(centres unmarked)", "Inhibition %": 21.4}, {"smiles": "C=CC(=O)N(Cc1cccnc1)Cc1ccsc1", "Inhibition %": 14.7}, {"smiles": "N#Cc1ncn(Cc2cccc(F)c2F)n1", "Inhibition %": 3.23}, {"smiles": "O=C(CCl)NC(=O)c1ccc[nH]1", "Inhibition %": 26}, {"smiles": "C=CC(=O)N1CCCc2cc(OC)ccc2C1", "Inhibition %": 4.79}, {"smiles": "O=C(CCl)NCC1Cc2ccccc2O1", "note": "(centres unmarked)", "Inhibition %": 26.5}, {"smiles": "CN(C(=O)CCCl)c1ccccc1", "Inhibition %": 9.16}, {"smiles": "O=C(NC1CN(c2ccccc2)C1=O)c1ccnc(F)c1", "note": "(centres unmarked)", "Inhibition %": 3.78}, {"smiles": "Cc1ccc(S(=O)(=O)OCC(F)(F)F)cc1C(N)=O", "Inhibition %": 7.17}, {"smiles": "Cc1noc(C)c1S(=O)(=O)Oc1cccc2c1CCC2=O", "Inhibition %": 12.8}, {"smiles": "C=CC(=O)NCc1cc2ccccc2s1", "Inhibition %": 13.3}, {"smiles": "CC1(C)OB(c2ccc3c(c2)COC(=O)N3)OC1(C)C", "Inhibition %": 3.95}, {"smiles": "Cc1ccc(C)c(S(=O)(=O)CCCl)c1", "Inhibition %": 2.68}, {"smiles": "N#Cc1ncn(CCOc2c(Cl)cccc2Cl)n1", "Inhibition %": 5.66}, {"smiles": "CC1(C)OB(c2cccc(-c3ncc[nH]3)c2)OC1(C)C", "Inhibition %": 0.986}, {"smiles": "CC1(C)OB(c2ccc(-c3cn[nH]c3)cc2)OC1(C)C", "Inhibition %": 0.918}, {"smiles": "Clc1cccc(Cl)c1OCC1CO1", "note": "(centres unmarked)", "Inhibition %": 9.6}, {"smiles": "C=CC(=O)N1CCc2ccsc2C1C", "note": "(centres unmarked)", "Inhibition %": 5.26}, {"smiles": "C=CC(=O)NCC1CC(=O)N(C)C1", "note": "(centres unmarked)", "Inhibition %": -0.151}, {"smiles": "O=C(O)C1CCN(S(=O)(=O)C=Cc2ccccc2)C1", "note": "(centres unmarked)", "Inhibition %": 10.3}, {"smiles": "C=CC(=O)N1CCN(C)CC1C#N", "note": "(centres unmarked)", "Inhibition %": 24.7}, {"smiles": "Cc1ccn(S(=O)(=O)c2ccc(Cl)c(Cl)c2)n1", "Inhibition %": 8.29}, {"smiles": "Cc1oncc1Cn1c(-c2ccncc2)noc1=O", "Inhibition %": 59.3}]}]}
